Measured values from PMC12136788.
Some of the results follow.

T1: UNK ZnF1-6 (called full-length) (human, UniProt Q9C0B0 30-357)
T1 sequence: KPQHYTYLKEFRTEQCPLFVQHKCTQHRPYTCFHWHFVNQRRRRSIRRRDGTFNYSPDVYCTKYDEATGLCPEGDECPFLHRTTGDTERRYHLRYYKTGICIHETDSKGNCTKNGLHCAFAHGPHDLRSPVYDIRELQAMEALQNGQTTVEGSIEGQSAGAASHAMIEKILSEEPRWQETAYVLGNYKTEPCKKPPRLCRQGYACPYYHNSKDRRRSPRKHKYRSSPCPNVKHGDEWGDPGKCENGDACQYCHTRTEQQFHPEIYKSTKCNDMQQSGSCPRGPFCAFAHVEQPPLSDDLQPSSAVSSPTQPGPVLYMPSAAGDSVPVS

B1: chr3:98799072:98799370:-|3pUTR|ENSG00000057019|msi1|total|mutant (ssRNA)
RNA: GGGAGUUCUACAGUCCGACGAUCCAAAGCAUCGUUUUAAAGCACAUGGCCUUUUUUUUUUAAUUAUCCGUGGCCGUAAUAUACCGAAUGUAUUACAUAACUGUCACUGAAGUGGUUGGGGAAAAUGUGGUGACUGAGGUACAGCAACAGAGGAUUGAGCAUCA
B2: chr11:60923185:60923286:+|3pUTR|ENSG00000110108|msi1|total|mutant (ssRNA)
RNA: GGGAGUUCUACAGUCCGACGAUCCAGAGAGCAGGGUGAGCUGCCAGCUGCCCCUCUCCACCAGGGUACCCUGUCUUGGUGGUCCGGGGCCACUUUUCCUUUGAGGCUCCCGUGGAGGUGGAUGUCCUUCUCUGCCAGGCUUGGCAACAGAGGAUUGAGCAUCA
B3: chr14:22633770:22634811:-|CDS|ENSG00000255804|control|control|control (ssRNA)
RNA: GGGAGUUCUACAGUCCGACGAUCAGUGGAAGGAAGAAGGCCUUUAAUACCUGUGCUUCCCACCUGACCAUAGUCAUCAUUUCUAGUGGCAUCACUGUGUUUAUCUAUGUGACUCCCUCCCAGAAAGAAUAUCUGGAGAUCAACCAACAGAGGAUUGAGCAUCA
B4: chr4:56448489:56448593:+|CDS|ENSG00000128050|unk|FALSE|bound_elsewhere (ssRNA)
RNA: GGGAGUUCUACAGUCCGACGAUCCCCACAGUGGUCUGAGGAACAGCUGAUUGCUGCAAAAUUUUGCUUUGCUGGACUUCUUAUAGGCCAGACUGAAGUGGAUAUCAUGAGUCAUGCUACACAGGCUAUAUUUGAAAUACUGGACAACAGAGGAUUGAGCAUCA
B5: chr7:100040983:100041096:+|3pUTR|ENSG00000106261|unk|total|mutant (ssRNA)
RNA: GGGAGUUCUACAGUCCGACGAUCGACCGCCAAGCAAAAUCAGUAAUUAUUUUAAAAUGAACAUAUGUAUUUUUAUUAACUUUCCGUUAAAUACAGAUUUUACAACGAGGUCAGCAUAAGCCUAAAUCUAUACCGAGGGCUAACCAACAGAGGAUUGAGCAUCA
B6: chr14:39095999:39096113:-|CDS|ENSG00000100934|unk|total|mutant (ssRNA)
RNA: GGGAGUUCUACAGUCCGACGAUCACAAUGACAACCUAUUUGGAAUUCAUUCAACAAAAUGAAGAACGAGAUGGAGUCCGAUUCCGUUGGAAUGUUUGGCCAUCAAGUCGACUGGAAGCUACAAGAAUGGUUGUUCCUGUGGCACAACAGAGGAUUGAGCAUCA

The binders below were run against T1, UNK ZnF1-6 (called full-length) (assay: nsRBNS (natural sequence RNA bind-n-seq); RBNS binding buffer (assumed for nsRBNS): 25 mM Tris pH 7.5, 150 mM KCl, 3 mM MgCl2, 0.01% Triton X-100, 500 ug/ml BSA, 20 U/ml SUPERase-In, 4 C; UNK is unkempt and MSI1 is Musashi-1; names of the RNAs are library labels; protein concentration not given here; high values mean tight binding).

Binder | binding signal [enrichment R]
B1 | 0.725
B2 | 0.603
B3 | 0.803
B4 | 0.438
B5 | 0.51
B6 | 0.363
